# More than one record can exist for a structure, and the calls need not agree.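 For each line, cells grew in 96-well plates with the test compound present at a single concentration for 48 hours.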 A number of entries come with more than one value. The list is limited to them. How the source made its calls: active means growth percent below 10; inactive means the rest. The source may hold further records. This drug was run again and again over the years, at the concentration stated with the values; each value is one run. Counts like (3×) count equal records among those shown.
# Legend:
# [1] = system: NCI-H23 lung; assay: NCI-60 one-dose screen, 48 h (100 = growth as untreated, 0 = no growth, -100 = all killed)
# [2] = system: NCI-H226 lung; assay: as above; conditions: 0.25 µM
smiles,measurement,setting,value
COc1cccc2c1C(=O)c1c(O)c3c(c(O)c1C2=O)C[C@@](O)(C(=O)CO)C[C@@H]3OC1CC(N)C(O)C(C)O1 (stereo not given in full),growth,"[1]; 0.25 µM, runs of 2021","inactive: 29.4, 36.1, 33.9, 38.5, 53, 37.5 (2×), 34.3, 34.9, 34.6, 33.1, 32.1, 39.4, 26.1, 29.2, 24.8, 22.8, 26.4, 24.9, 20.6, 26.6 (2×), 27.9, 24.6, 26.3, 30, 27.7, 34.4, 31.9, 36.4, 24, 23, 20, 25.1%"
same,growth,"[1]; 0.25 µM, runs of 2022","active: -11.5, -1.92, -32.7, 2.31% and inactive: 16.1, 24.7, 21, 14.9, 27.5, 23.6, 35.6, 29, 34.6 (2×), 15.6, 14.1 (2×), 15.4, 40.9, 39.6, 24.8, 39.2, 74.4, 15, 13.9%"
same,growth,"[1]; 25 µM, runs of 1991","active: -87.9, -84.5, -88.2, -58.7, -99.4, -94.6, -67, -76.7, -90.7, -22.3, -91.7, -70.9, -97.8, -85.9, -98.2, -95.2, -94.8%"
same,growth,"[1]; 25 µM, runs of 1992","active: -90.4, -77.8, -85.8, -86.4, -82.1, -97.2, -93.9, -89.5, -84.9, -87 (4×), -58.6, -63.7, -74.1, -86.8, -72.5, -89.2, -80, -91.6, -98.2 (2×), -75.2 (2×), -72.7, -65, -79.7, -50.6, -82.9 (2×), -47.4, -63.6, -41.4, -83.3, -15.6, -90.1 (2×), -95.4 (2×), -78.6, -96.4 (2×), -97.3, -98.1 (2×), -95.5, -96.7 (2×), -83.2, -73.3, -80.5, -73, -86.1, -85.7, -86.2, -95.2, -85.3, -77.7, -93.2, -92.5, -85.2 (4×), -96.1 (2×), -90.9 (2×), -89.9, -84.6, -82.4, -71.1, -98.4, -96.2, -78.2, -73.7, -91.4, -81.5, -72.1, -82.6, -71.2, -66.6, -92.4, -54.2, -100, -80.8, -45.1, -93.4, -29.4, -78.9, -94.9 (2×), -55.2, -84.8, -57.9, -59.8, -83.1, -90.6, -92, -94.2, -90.7, -41.1, -53.7, -91.1 (2×), -81.7, -94.5, -35.4, -88.2, -89.3, -66.2, -86, -97.5, -83.6, -17, -49.1, -43.6, -68.1, -89.6, -93, -90, -54, -45.9, -80.9, -94.6%"
same,growth,"[1]; 25 µM, runs of 1993","active: -84.3, -80.1, -33.5, -67.7, -94.9, -90.5, 4.33, -46.3, -56.3, -97.5, -94.3, -82, -82.7, -95.5, -96.2 (2×), -64.4, -47.8 (2×), -44.1, -25 (2×), -99.4, -90.1, -41.6, -61.9, -55.1, -40, -75.6, -43.5, -24.3, -51.3, -90, -49.9 (2×), -86.6, -96.8, -86.4, -73.3, -54.6, -71.1, -39.2, -70.1, -64.8, -91.4, -39.7, -69.9, -56.5% and inactive: 109%"
same,growth,"[1]; 25 µM, runs of 1994","active: -65.9, 0.623, -49.9, -55.1, -94.9, -99.7, -60.2, -70.3, -84.6, -97.2, -41.9, -90, -64.3, -79.7, -51.3, -52.6, -96.3, -31.9, -16, -51.2, -63.7, -37.3, -67.8, -94.8, -13.3, -36.7, -27.2, -89.4, 5.32, -67.7, -97.3, -61.6, 1.56, -6.17%"
same,growth,"[1]; 25 µM, runs of 1995","active: -72.1, -83.8, -37.5, -45.9, -62.8, -66.7, -96.1, -43.4, -75.1, -56.5, -63.8, -55.8, -62.1, -84.3, -42.1, -40.7, -68.9, -78, -71.9 (2×), -100, -95.9, -73, -70.2, -53.2, -77.8, -97.6, -71.5, -54.9, -72.5, -72.6, -49.6, -82.7, -90.2, -91.8, -71.3, -74.8, -64.3, -69.6, -93.1%"
same,growth,"[1]; 25 µM, runs of 1996","active: -43.3, -74.6, -79.1, -52.4, -73.8, -90.4, -62.4, -74.8, -76, -59.5, -66.2, -94.6, -93.4, -67.4, -77, -76.8, -97.7, -75.6, -39.6, 5.09, -61.9, -97.6, -77.9, 3.67, -85.2, -58, -65.9, -54.6, -53.5, -46.4, -93.9, -87.2, -78.4, -80.4, -82, -67.1, -47.4, -98.2, -96.3, -59.8, -67, -6.17, -79.3, -2.15, -69.5, -50.4, -72.4, -65.7, -78.7, -79.8, -86, -92.8, -64.4, -78.2, -92.6% and inactive: 113%"
same,growth,"[1]; 25 µM, runs of 1997","active: -71.1, -77.7, -84, -92.5, -61.6, -76.9, -21, -73.3, -78.3, -48.9, -90.3, -86 (2×), -55.3, -83.2, -49.3, -66, -55.8, -66.4, -52.1, -87.8, -79.7 (2×), -64.7 (2×), -92.2, 0.568, -71.8, -51.3, -51.5, -79.2, -68.1 (2×), -78.1, -85.1, -71.6 (2×), -73.7, -88.4 (2×), -7.29, -72.8, -82.9%"
same,growth,"[1]; 25 µM, runs of 1998","active: -40.8, -83.9, -7.53, -84.4, -65.2, -17.2, -30.6, -21.7, -71.6, -57.5, -65.6, -72.2 (2×), -20.4, -32.7, -58.6, -81, -46.1, -45.3, -68.3, -63.2, -48.3, -12.2, -69.9, -49.8%"
same,growth,"[1]; 25 µM, runs of 1999","active: -69.4, -83.8, -53.4, -69, -100, -70, -95.5, -75.9, 0.0084, -15.4, -25.5, 4.41, -56.3, -1.43, 7.91% and inactive: 14.1%"
same,growth,"[1]; 25 µM, runs of 2000","active: -100% (2×), -22%, -78.1%"
same,growth,[2]; runs of 2006,"active: -21.1%, -1.96%"
same,growth,[2]; runs of 2007,"active: 1.24, -2.96, -2.75, -1, -8.13, -9.41, 8.92, -4.28, 9.42, 6.15, -47.8, 9.3, -9.45% and inactive: 19.5, 20, 17.1 (2×), 26.4, 15.1, 19.2, 21.4, 17.9, 14.5, 28.9, 43.5, 34.5, 41.9, 12.8 (2×), 36.9, 50.5, 20.2, 17.7, 17.2, 41, 23.6, 17.5, 21.3, 31.7, 20.4, 14.8, 75.5, 35.6%"
same,growth,[2]; runs of 2008,"inactive: 44.1 (2×), 32.2, 39.6, 31.9, 32, 39.5, 45.5, 39.2, 46.4, 48, 48.1, 49.9, 55.5, 33.1, 35.8, 31.8, 100, 32.7, 30.5, 38.1, 26.8, 10.2 (2×), 29.6, 23.5% and active: 8.77, -2.91, -22.7, -32.3, -43.2, -46.4, -44.9, -30.2, -36.6, -47.9, -6.66, -39.5, -16.2, 7.32, -59.1, 7.15, -52.2, 6.83, -32.9, -24.8, -51.6, -9.34, -9.97, 8.33, -9.45, -13.1, 7.72, -2.5, 2.11, -15.8, -10%"

# — PubChem BioAssay (NCI)
